# From ChEMBL document CHEMBL4888484, “Replenishing the malaria drug discovery pipeline: Screening and hit evaluation of the MMV Hit Generation Library 1 (HGL1) against asexual blood stage Plasmodium falciparum ,using a nano luciferase reporter read-out” (2022)
# Out of some 150,000 compounds screened, about 540 (0.36%) showed an effect of 50% or more. This is one part of the list.
# System: Plasmodium falciparum
# Test: Primary screen in NF54 nanoGlo assay, in single point, at 2uM, 72h; a lower Z score goes with more inhibition
# Format: functional, Erythrocyte
# Details: timepoint 72 hour
SMILES,% Inhibition,Z score
Fc1ccc(N2CCN(Cc3nc4c(s3)CCC4)CC2)cc1,0%,-0.03
Cc1cccc(N2CCN(C(=O)CCC3=Nc4cc(C(F)(F)F)ccc4S(=O)(=O)N3)CC2)c1C,36%,-4.07
O=C(NC[C@H](O)c1c(Cl)cccc1Cl)c1cnn2ccncc12,3%,-0.33
O=C(c1ccc2nsnc2c1)N1CCc2oncc2C1,-10%,1.56
COc1ccc(OC)c2sc(N3CCN(C(=O)c4cc(C)on4)CC3)nc12,-3%,0.39
CN(C)c1ncc(C=Cc2ncc(C(=O)O)s2)n1C,5%,-0.5
COC(=O)C1=C(C)OC(=O)[C@]1(NC(=O)c1ccc(Cl)cc1Cl)C(F)(F)F,-7%,1.02
Cc1cncc(OCc2ccccc2C)n1,6%,-1.18
OCCn1ncnc1Cc1cc(F)cc(Cl)c1,-5%,0.53
Cc1ccc(NC(=O)N2CCC[C@@]3(CCOC3)C2)cc1,-3%,0.31
Cc1cc(NC(=O)CON=C(N)Cc2ccccc2Cl)no1,-3%,0.46
CC(=O)Nc1ccc(S(=O)(=O)N2CCc3c(c(CN(C(C)=O)c4ccccc4)nn3C)C2)cc1,-14%,2.45
COCCn1cnnc1CNC(=O)Cc1cccs1,-4%,0.8
C(=Cc1ccnn1CC1CC1)c1nccs1,17%,-2.22
O=C(c1ccccc1)c1ccc2n1CC[C@H]2C(=O)Nc1cccc(Cl)c1F,-1%,0.17
CCN1CC2(CCN(Cc3cc(C)no3)CC2)C[C@@H](c2ccccc2)C1=O,-5%,0.7
CCCN1CCC(NC(=O)c2cn(Cc3c(F)cccc3F)nn2)CC1,0%,-0.02
Cc1cc(C)cc(N2CCC(N3CCn4nc(C(=O)O)cc4C3)CC2)c1,-7%,0.94
CCn1c(-c2cc(NC(=O)CCc3ccccc3)[nH]n2)cc2ccccc21,3%,-0.41
O=C(N[C@H](c1ccccc1)C1CC1)N1CCN(S(=O)(=O)c2cccc(F)c2)CC1,36%,-4.7
COCCCn1ccnc1-c1ccc2nonc2c1,2%,-0.27
Cc1nnc(C)c2c(C)n(-c3ccc4c(c3)OCO4)c(C)c12,-6%,0.92
COc1ccc(CCNC(=O)c2noc(C)c2CN2CCOCC2)cc1OC,-22%,2.25
COc1cccc(C)c1C(=O)N1CCCNC(=O)C1,-16%,2.02
